Laboratory results: PubChem BioAssay AID1745853 (National Center for Advancing Translational Sciences (NCATS), 2022)
The other results are listed elsewhere or left out. The main result of the screen is listed elsewhere. These columns were measured beside it and carry no call.

Legend:
Assay in all cases: Primary Screen for Target Class Profiling of Small Molecule Inhibitors of Methyltransferases
[1] = target: Glycine N-methyltransferase (Homo sapiens) (UniProt Q14749); details: purified enzyme, MTase-Glo SAH luminescence; measured here: GNMT inhibition; at 40 µM; stronger effect = lower value
Outline: (§1)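 Each enzyme was assayed with SAM and its substrate. SAH formation detected by MTase-Glo luminescence; single-point 40 uM screen[…].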

[2] = target: Guanidinoacetate N-methyltransferase (Homo sapiens) (UniProt Q14353); details: purified enzyme, MTase-Glo SAH luminescence; measured here: GAMT inhibition; at 40 µM; stronger effect = lower value
Outline: as §1

[3] = target: Histamine N-methyltransferase (Homo sapiens) (UniProt P50135); details: purified enzyme, MTase-Glo SAH luminescence; measured here: HNMT inhibition; at 40 µM; stronger effect = lower value
Outline: as §1

[4] = target: Nicotinamide N-methyltransferase (Homo sapiens) (UniProt P40261); details: purified enzyme, MTase-Glo SAH luminescence; measured here: NNMT inhibition; at 40 µM; stronger effect = lower value
Outline: as §1

[5] = target: Phenylethanolamine N-methyltransferase (Homo sapiens) (UniProt P11086); details: purified enzyme, MTase-Glo SAH luminescence; measured here: PNMT inhibition; at 40 µM; stronger effect = lower value
Outline: as §1
% is set by controls: 0 for no effect and ±100 for the full control effect.

Structure (SMILES) | activity change, negative = inhibition [1] [%] | activity change, negative = inhibition [2] [%] | activity change, negative = inhibition [3] [%] | activity change, negative = inhibition [4] [%] | activity change, negative = inhibition [5] [%]
CCCN1C(=O)CCc2cc(NC(=O)NCCCOCC)ccc21 | -2.24 | 0.866 | -33.6 | -3.31 | 8.4
CCCN1C(=O)c2c(C(=O)NCCN3CCOCC3)ncn2CC1(C)C(=O)NCc1ccc(F)cc1 (stereo not given) | 1.93 | 2.22 | 9.37 | 11.2 | 10.1
CC(C)N1C[C@@H](COC(C)(C)C)[C@H](c2ccccc2)[S+]1(=O)[O-] | -5.2 | -5.43 | -1.87 | -9.7 | -19
CN1CCN(S(=O)(=O)c2ccc(F)cc2)CC12CCNC(=O)CC2 (stereo not given) | -4.18 | -9.11 | -4.82 | -12 | -8.66
Cc1cc(CN(C)C(=O)c2cc(COc3ccc4c(c3)OCO4)[nH]n2)on1 | -4.95 | -3.7 | -0.959 | -10.6 | -20.6
Cc1ccc(CN2CCOCCNC(=O)[C@H]3CCCC[C@H]32)s1 | -5.14 | -6.47 | -1.84 | -7.52 | -2.44
CCCCOc1ccc(CNC(=O)c2cc3n(n2)CC(C)(C(=O)NCc2ccc(C)cc2)N(C)C3=O)cc1 (stereo not given) | 5.55 | 0.701 | 6.07 | 6.39 | 6.47
CC(=O)OC1C[C@@]2(C)[C@@H](CC[C@@H](C)[C@]23Cc2c(O)cc4c(c2O3)CNC4=O)C(C)(C)[C@@H]1O (stereo not given in full) | 5.14 | 0.959 | 9.6 | -11.2 | -5.26
Cc1nn(-c2ccccc2)c(C)c1Cc1nc(C(C)C)no1 | -6.65 | -6.24 | -5.83 | -13.1 | -6.49
COC(=O)c1cc(OC)c(O[C@@H]2O[C@@H](C)[C@H](O)[C@@H](O)[C@H]2O)c(OC)c1 | 6.59 | 6.23 | 2.43 | -6.91 | 7.01
CC(C)Cn1c(=O)c2ccc(C(=O)NC3CCCC3)cc2n2c(=O)n(CC(=O)NC3CCCCC3)nc12 | 3.35 | 2.93 | 4.11 | 2.59 | 2.2
CCCn1ncc(CN2CCCC(C(=O)c3cccc(OC(C)C)c3)C2)c1C (stereo not given) | -1.75 | 19.6 | -7.55 | -9.73 | -6.86
Cc1ccc(-c2noc(CNC(N)=O)n2)nn1 | -6.62 | -5.09 | 1.34 | -44.1 | -1.7
COc1ccc(Br)cc1CN1C(=O)c2cc3ccccc3n2CC1(C)C(=O)NCCCOC(C)C (stereo not given) | 4.26 | 5.28 | 6.69 | 1.26 | 1.81
CCCn1c(=O)c2ccc(C(=O)NC(C)C)cc2n2c(SCC(=O)Nc3ccc(C)cc3)nnc12 | 2.8 | 6.15 | 8.2 | -6.18 | -2.2
COCc1ncc(C)n1CCNC(=O)c1ccc(OC)nc1OC | -2.54 | -2.79 | -1.68 | -5.15 | 8.37
Cc1cc2nn(CC(=O)Nc3ccc4c(c3)OCCO4)c(=O)n2c(Nc2ccccc2C)n1 | -2.18 | 6.33 | -10.5 | -6.05 | -1.74
CC1(C)CC[C@]2(C(=O)OC3OC(CO)C(O)C(O)C3O)CC[C@]3(C)C(=CCC4[C@@]5(C)CC[C@H](OC6OC(C(=O)O)C(O)C(OC7OC(CO)C(O)C(O)C7O)C6O)C(C)(C)C5CC[C@]43C)C2C1 (stereo not given in full) | 2.99 | 4.4 | 8.24 | -7.5 | 3.83
COC(=O)c1ncn2c1C(=O)N(Cc1cccc(Br)c1)C(C)(C(=O)NC1CCCC1)C2 (stereo not given) | -0.01 | 3.53 | 4.03 | -1.66 | -0.84
Cc1cccc(C2c3cccn3-c3sc4c(c3CN2C(=O)Nc2ccccc2)CCCC4)c1 (stereo not given) | -2.67 | -2.38 | -2.17 | -5.46 | -2.4
Cn1cc(CN2C[C@H](C(=O)Nc3ccc(F)cc3)C[C@@H]2c2cccc(C(F)(F)F)c2)cn1 | -8.66 | -4.96 | -4.02 | -14.4 | -4.3

Structure (SMILES) | activity change, negative = inhibition [1] [%] | activity change, negative = inhibition [2] [%] | activity change, negative = inhibition [3] [%] | activity change, negative = inhibition [4] [%] | activity change, negative = inhibition [5] [%]
CCCOc1ccn2c(C(C)=O)cc(-c3ccccc3S(C)(=O)=O)c2c1 | 5.82 | 5.76 | 6.28 | -11.9 | 2.06
CNS(=O)(=O)c1ccccc1Nc1nc(Nc2ccc(N3CCN(C)CC3)cc2OC)ncc1Br | -26.8 | 12.8 | -47.4 | -18.4 | -9.42
CC1(C)CCCC2(C)C1CC(=O)C13CC(CCC12)C(O)(CO)C3 (stereo not given) | -4.45 | -2.63 | -0.544 | -15 | -0.089
CCCN1C(=O)c2c(C(=O)NCc3cccc(F)c3)ncn2CC1(C)C(=O)NCc1ccc(F)cc1 (stereo not given) | -1.32 | 1.96 | -1.78 | -0.611 | 2.3
Cc1cnc(CCNS(=O)(=O)c2cccc(F)c2)n1C(C)C | -5.76 | -4.84 | -21.1 | -9.91 | -15.8
CCCCOc1ccccc1-c1cc2n(n1)CC(C)(C(=O)NC1CCCCCC1)N(CC)C2=O (stereo not given) | 1.45 | 0.734 | 3.01 | 6.02 | 0.37
COc1ccc(CNc2nc3c(S(=O)(=O)c4ccccc4)nnn3c3ccc(Cl)cc23)cc1 | -9.96 | 3.33 | -2.49 | -0.02 | -4.4
O=c1[nH]c2ccc(S(=O)(=O)NCCCc3ccccc3)cc2[nH]1 | 12.3 | 0 | 10.9 | -1.31 | -1.38
COc1ccc(C(C)NC(=O)c2noc(-c3ccc(F)cc3)n2)cc1OC (stereo not given) | -9.66 | 1.27 | 0.922 | -4.92 | 0.954
CNC(=O)N1CCCC1c1nc(C2CN(C(=O)c3cnccn3)C2)no1 (stereo not given) | -3.04 | 2.47 | 2.56 | -4.95 | -12.6
COc1ccc(F)cc1-c1cccc(C(=O)NCC(=O)NCc2cccs2)c1 | -7.44 | -2.06 | -3.48 | -8.89 | -18.3
COC(=O)C[C@H]1C(C)(C)[C@H](OC(=O)c2ccccc2)C2CC3=C4CC(=O)O[C@@H](c5ccoc5)[C@]4(C)CCC3[C@@]1(C)C2=O (stereo not given in full) | -1.15 | -0.204 | 5.2 | -16.5 | -8.76
CN1CCN(CCCN2c3ccccc3Sc3ccc(Cl)cc32)CC1 | -11.9 | 2.17 | -5.74 | -28.1 | 0.698
CCn1nc(CNC(=O)Cc2cccc(Cl)c2)c2ccccc21 | 2.56 | 1.94 | 0.126 | -1.46 | 2.84
O=C(c1ccco1)N1CCC(N2CC3(CCCC3)C2c2ccccc2)CC1 (stereo not given) | -2.51 | 0.333 | -10.4 | -9.24 | -2.12
Cc1[nH]c2ccccc2c1CCNC(=O)c1ccccc1F | -0.669 | 8.15 | 10.5 | -15.8 | 2.77
Cc1ccccc1OCc1nc(C2CN(C(=O)c3nccc4ccccc34)C2)no1 | -7.2 | -1.29 | -0.61 | -8.52 | 0.388
COCCn1c(CO)nnc1C1CC(NC(=O)c2cc(C)n3nc(C)cc3n2)C1 (stereo not given) | -1.37 | 5.77 | 0.789 | 0.969 | -6.53
CCc1cccc(N2C(=O)c3ccccc3CC2(C)C(=O)NCc2ccccc2)c1 (stereo not given) | 3.55 | 0 | 6.39 | -2.29 | 3.5
COC(=O)CCSCc1ccc(-c2onc(C)c2NC(=O)OC(C)c2ccccc2Cl)cc1 (stereo not given) | -2.2 | -13.8 | 12.5 | -29.6 | -13.5
CS(=O)(=O)NCC1CCC(Nc2nc3c(s2)CCSc2ccccc2-3)CC1 (stereo not given) | -9.28 | 1.19 | 7.42 | -22.9 | -1.5

Structure (SMILES) | activity change, negative = inhibition [1] [%] | activity change, negative = inhibition [2] [%] | activity change, negative = inhibition [3] [%] | activity change, negative = inhibition [4] [%] | activity change, negative = inhibition [5] [%]
CC1CCC(NC(=O)C2(C)Cn3c(cc4occc43)C(=O)N2Cc2cccc(F)c2)CC1 (stereo not given) | -1.84 | 0.167 | 0.694 | -4.58 | -0.138
CC(C)/C=C1\NC(=O)C(C(C)C)n2c1nc1c(c2=O)C=CC=CO1 (stereo not given) | -3.29 | -8.18 | 5.92 | -20 | -11.7
N=c1c[n+](N2CCOCC2)[n-]o1 | 6.57 | 19 | 15.5 | -4.93 | 7.88
CCCCc1nc2c3ccccc3n(CC(=O)N3CCN(c4ccccc4F)CC3)c(=O)n2n1 | 15.5 | 0 | 12.3 | 7.64 | 7.92
CCN(CC)CCCN1C(=O)c2cc3occc3n2CC1(C)C(=O)NC1CCC(C)CC1 (stereo not given) | -6.46 | 7.1 | -4.72 | -0.741 | -0.944
Cc1ccsc1CCNC(=O)CCc1nnc2ccc(NCc3ccccc3)nn12 | -3.4 | 5.29 | -0.931 | -7.07 | 3.12
Cc1nc(C)c(C(=O)N2CCC(c3nnc(Cn4ccnc4)n3C)CC2)o1 | -3.98 | -6.61 | -3.4 | -2.98 | -5.54
Cc1ccc(CNC(=O)Cn2nc3n(C(C)C)c(=O)c4ccc(C(=O)NC(C)C)cc4n3c2=O)cc1 | 1.59 | 0 | 3.13 | -0.825 | 3.29
Cc1cc(C)c(S(=O)(=O)NCCc2nc(-c3ccc(F)cc3)n[nH]2)cc1C | -2.06 | 1.89 | -3.95 | -4.09 | -6.3
O=C(Cn1c(=O)c2ccc(Cl)cc2n2nncc12)Nc1ccc(Oc2ccccc2)cc1 | -1.48 | 4.5 | 1.48 | -4.13 | -3.87
CCCn1c(=O)c2ccc(Cl)cc2n2c(=O)n(Cc3cc(C)ccc3C)nc12 | 3.71 | 0 | 8.89 | 4.03 | 3.02
COc1ccc(-c2cnc3[nH]cc(CC(=O)Nc4ccc(C(F)(F)F)cc4)c3c2)cc1 | -10.1 | -12.1 | -7.64 | -19 | -18.9
CC1CCC(NC(=O)C2(C)Cn3c(cc4sccc43)C(=O)N2Cc2cccnc2)CC1 (stereo not given) | 1.88 | 0 | 3.41 | 4.56 | 0.746
O=C(NCC1(O)CCCNCC1)c1cccc(-c2ccc(F)cc2)c1 (stereo not given) | -6.73 | -4.54 | -5.74 | -5.46 | -0.636
CCn1ccnc1CN1CCCC(CO)(Cc2cccc(Cl)c2)C1 (stereo not given) | -3.26 | 2.47 | -21.3 | -6.19 | -1.33
Cc1ccc(C)c(N2CCN(S(=O)(=O)c3cc4[nH]c(=O)[nH]c4cc3C)CC2)c1 | 2.8 | 0 | -3.71 | -6.84 | -0.637
COCCNC(=O)c1cc2n(n1)CC(C)(C(=O)NC1CCCC1)N(C)C2=O (stereo not given) | 2.93 | 5.27 | -2.46 | 5.82 | -0.381
CCCC1CN(Cc2ccc(OC)cc2)[S+](=O)([O-])c2cnccc2O1 (stereo not given) | -7.71 | -8 | -2.84 | -29.7 | -10
COC(=O)[C@@H]1Cc2ncn(Cc3ccc(OC)cc3)c2CN1S(=O)(=O)c1ccccc1 | -9.47 | -0.387 | 1.05 | -10.6 | -3.94
